Among all 370,000 compounds or so, about 150 (0.041%) were called active. This list was built around the results that the source calls inconclusive (neither active nor inactive); the mix of calls is not that of the screen. The call rests on the fitted dose curve; in most records, active means well fitted inhibition curve with a large enough effect; inconclusive means small, poorly fitted or top-dose-only effect; inactive means flat fitted curve, though single readings scatter. No potency is given beside an inconclusive call; the fits are too rough.
Target: Beta-lactamase (Escherichia coli (strain K12)) (UniProt P00811)
Assay: qHTS Inhibitors of AmpC Beta-Lactamase (assay with detergent); further: nearly all actives have a fitted effect of over 25% in size;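 on activity change, negative = inhibition: 0% = no-compound wells and -100% = no-enzyme wells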
Settings: AmpC hydrolysis of nitrocefin, absorbance 480 nm, 0.01% Triton; activity change, negative = inhibition: at 114 µM (top of the series)
Outline: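 AmpC (5.3 nM in the dispensed reagent) in 20 mM phosphate pH 7.0 with 0.01% (detergent screen) or 0.0001% Triton X-100 was preincubated with compounds for 15 min at room temperature. Nitrocefin was then added from an 800 uM solution, and hydrolysis was followed at 480 nm.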
Potency means the concentration at half of the fitted maximal effect; tags describe the fitted curve by direction and shape.

UniProt P00811, sequence (P00811 whole entry, looked up): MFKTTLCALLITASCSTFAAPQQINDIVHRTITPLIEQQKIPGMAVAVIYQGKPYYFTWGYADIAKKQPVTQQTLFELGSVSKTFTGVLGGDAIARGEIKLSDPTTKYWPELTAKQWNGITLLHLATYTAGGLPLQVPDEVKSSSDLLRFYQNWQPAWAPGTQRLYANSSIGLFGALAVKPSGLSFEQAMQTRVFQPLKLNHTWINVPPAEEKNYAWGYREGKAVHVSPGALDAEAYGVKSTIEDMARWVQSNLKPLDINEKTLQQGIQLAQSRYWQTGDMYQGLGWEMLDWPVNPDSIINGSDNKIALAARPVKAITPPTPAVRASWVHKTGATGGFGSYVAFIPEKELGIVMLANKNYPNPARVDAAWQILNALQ

Row | SMILES | activity change, negative = inhibition | Potency
1 | O=C(Nc1ccccc1C(=O)N/N=C/c1ccco1)c1ccc(F)cc1 | inactive: 5.17% | –
2 | O=C1NC(=S)/C(=C\c2ccc(-c3ccccc3Cl)o2)S1 | – | inconclusive [inhibitor, partial curve, poor fit]
3 | CC(C)COc1ccc(C(=O)NC(=S)Nc2ccc(CN3CCOCC3)cc2)cc1 | – | inconclusive [inhibitor, partial curve]
4 | COc1ccc2c(c1)c1c(c(=O)n(-c3cccc(C)c3)c(=O)n1Cc1cccc(Cl)c1)n2C | inactive: -4.86% | –
5 | COc1ccc(OC)c(CN2CCN(C(=O)CNC(=O)c3ccc(C(C)(C)C)cc3)CC2)c1 | inactive: -4.55% | –
6 | Fc1ccccc1CSc1nnc(-c2ccccc2)o1 | inactive: -19.3% | –
7 | COc1cc(C(=O)NCCOc2cccc3cccnc23)cc(OC)c1OC | inactive: 10.4% | –
8 | Cc1ccc(NC(=O)c2ccc(S(=O)(=O)NCc3ccco3)cc2)nc1 | – | inconclusive [inhibitor, full curve, poor fit]
9 | O=C(COc1ccc(Br)cc1)Nc1ccc(-c2nnc(-c3ccco3)o2)cc1 | – | inconclusive [inhibitor, single point]
10 | CC(C)(C)C(=O)NCC12C=CC(O1)C1C(=O)N(c3ccccc3)C(=O)C12 (centres undefined) | – | inconclusive [inhibitor, full curve, poor fit]
11 | O=C(N/N=C/c1ccco1)/C(=C/c1cccc([N+](=O)[O-])c1)NC(=O)c1ccccc1 | – | inconclusive [inhibitor, full curve]
12 | COc1ccc(C(=O)Nc2ccc3ccccc3n2)cc1OC | – | inconclusive [inhibitor, partial curve, poor fit]
13 | Cc1cc(NC(=O)CSc2nc3ccccc3n2CC(=O)N2CCCCC2)no1 | – | inconclusive [inhibitor, full curve, poor fit]
14 | COCCn1c(SCC(=O)N2CCCCC2)nc2c(c1=O)SCC2 | – | inconclusive [inhibitor, partial curve]
15 | Cc1cccnc1NC(=O)C1CC(=O)N(c2ccc3c(c2)OCCO3)C1 (centres undefined) | – | inconclusive [inhibitor, single point]
16 | CCOC(=O)c1ccc(NC(=O)CCc2nc(-c3ccccc3)no2)cc1 | – | inconclusive [inhibitor, full curve, poor fit]
17 | Cc1ccsc1C(=O)OCC(=O)c1ccc[nH]1 | – | inconclusive [inhibitor, partial curve, poor fit]
18 | CCOC(=O)CCn1c(=O)c2c(nc(Br)n2Cc2ccccc2)n(C)c1=O | inactive: 2.42% | –
19 | COc1ccc(OC)c(S(=O)(=O)NCC(c2cccs2)S(=O)(=O)c2ccc(F)cc2)c1 (centres undefined) | inactive: -0.428% | –

— PubChem BioAssay AID485294 (National Center for Advancing Translational Sciences (NCATS), 2010)
